Experimental data: the supplement of paper PMC3334620
Over roughly 33,000 sequences, “E-score (-0.5 to 0.5)” has its median near -0.017; the highest 2% begin near 0.3. The list shows a part of the results.

target: T1, Sut1 (UniProt P53032); assay: PBM E-score (8-mer binding enrichment) (E-score (-0.5 to 0.5)); higher = stronger / more preferred TF binding; most listed sequences are background and not binding sites; conditions: protein concentration: 200 nM; construct: GST-full length
T1 sequence: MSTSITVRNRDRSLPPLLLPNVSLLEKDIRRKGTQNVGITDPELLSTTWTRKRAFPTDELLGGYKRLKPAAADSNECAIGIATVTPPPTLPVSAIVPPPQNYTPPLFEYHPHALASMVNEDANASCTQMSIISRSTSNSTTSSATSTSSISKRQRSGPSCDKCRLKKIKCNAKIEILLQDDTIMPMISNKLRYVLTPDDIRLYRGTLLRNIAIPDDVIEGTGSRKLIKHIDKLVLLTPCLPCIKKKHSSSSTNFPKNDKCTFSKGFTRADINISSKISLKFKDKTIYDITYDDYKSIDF
Summary of the method: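 For each ungapped eight-base word taken together with its reverse complement, the Universal PBM Analysis Suite assigned an E-score. Binding data came from GST-tagged yeast transcription factors, applied at about 100-200 nM, on universal all-10-mer Agilent arrays made double-stranded by primer extension. Fluorescent anti-GST marked bound protein, and scans were normalised with masliner.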

Sequence	PBM E-score
CCATAATA	0.157
GCGAGCGC	-0.137
GCACTCAC	-0.146
GGCTTAAA	0.0567
CATTGGGC	-0.206
GACTTCAC	-0.00592
ATCCTTCA	0.0682
CGTCCACC	-0.203
AAAACAAT	0.215
CCACGTTC	-0.173
ATAACAGC	0.0774
TGAAGCCA	0.0704
AAGCTGGT	-0.0508
CTCTCAAA	0.0731
GGTAAGGA	-0.143
ATTGCTTG	0.111
AAGTACCA	0.0305
AGACTCCA	-0.00302
TAGTTGAA	0.132
TATAGGCA	-0.158
AATAATAA	0.304
GTCCAAGA	-0.258
TCACGCCA	-0.0888
GCGTTTTA	0.0253
CACGATAC	-0.0756

Sequence	PBM E-score
AATTAAAT	0.276
CCATTTCC	0.139
CAGCCGAG	-0.13
GTTCGACA	-0.0722
ACGTAATG	-0.0505
AGCTTTGG	-0.0138
AAACAGAT	0.13
CTGTCTCA	-0.138
AGGGCCAC	-0.26
AGTGCGGA	0.248
CCGGCTCC	0.0984
CAATATCC	0.0312
ATCCCTGA	-0.0472
AGGGTCCC	-0.24
CCGAAAAG	0.178
GCGAAGCC	-0.128
ATGGGAGA	-0.233
CTGTTTCA	-0.0142
TAAACTTA	0.0483
AGGCGCGG	-0.145
GGAGAACC	0.115
GTGCCAAC	-0.0403
CAGAGCGC	-0.345
AGATCCAT	0.0569
AAAATCGT	0.0813

Sequence	PBM E-score
CACGTCAA	-0.12
AATTGGTC	0.132
AGATCTAT	-0.0198
ATATCCAT	0.193
AGCGTGAC	-0.108
CAGGAACC	-0.273
CTCTTCCC	-0.289
AGGAGGAA	-0.0769
AACGATCG	0.111
ATACTGGG	-0.138
AACTAGTC	0.0497
ACCCAAGT	-0.12
ACGCCATG	-0.149
AAGCTTGG	0.0601
AACCACCT	0.094
CGCTGGTA	-0.126
GCCAGGCA	0.0413
GTATGATA	0.27
CACCCTTA	-0.171
ACGTCAAA	0.0835
AACAACGC	0.0643
CGGTCCAG	-0.194
ATATATGA	0.176
AATATTAA	0.263
AGCCTAAT	0.0842

Sequence	PBM E-score
GACGTACC	-0.157
CTTTCGTA	0.0877
ACGCTAGG	-0.123
ATTAAAGG	0.194
AGCTCTTG	-0.248
ACGAACCG	-0.204
CCCTTACC	-0.17
ACGGCGGC	-0.168
AGTGCTGA	-0.2
CGGGTACC	-0.237
ATCCGTCC	-0.0115
GAAACTTC	0.0956
ATTTCCAC	0.126
CGCGGAAG	0.11
GCATTGCC	-0.209
GGAACGTA	-0.105
AATAACTC	0.186
AATAGTTC	0.0739
ACCGGTGC	-0.0607
AAGTATCG	-0.0195
CCCAGCCC	-0.283
CCGCTAAA	-0.0372
GGATCCAA	0.1
CATGATGA	0.0597
TACGCGAA	-0.0866

Sequence	PBM E-score
CGATCATC	-0.0321
TTGCACAA	-0.00301
AGGCTAGG	-0.312
AAGGCGGT	-0.142
AGCATGTG	-0.231
AATCCAGT	0.0499
CAACAGGC	-0.243
TATTTCAA	0.301
CCTTAGGA	-0.0422
AAGGGGGA	-0.0309
AGGTCTTG	-0.153
CGGAGGAA	0.0168
TGGCAACA	-0.067
ATTGTATA	0.311
TACCGTCA	-0.146
AAAGTTGC	-0.118
TAGCTCAA	-0.0138
AGGGGTCC	-0.273
ACCGTTTG	0.0491
CGCCCAGA	-0.185
TGAGCGCA	-0.0031
AGGGCCCC	-0.346
CCTGGCGA	-0.213
TCCAATAA	0.17
AACGTACT	0.122

Sequence	PBM E-score
GGTGTTGA	0.0232
AAGCCCAG	0.0601
ATAGCCTG	-0.139
AAGGCAAT	0.099
GACTGCAA	-0.14
ACACATCC	-0.103
ACATAGAC	0.0215
CGCCCCGC	-0.158
CAACCACA	0.131
AAAGGATT	-0.084
CTGACAAA	0.0355
ATACTGGA	0.122
AGCACCGA	0.143
AAAGTGCT	0.0514
AAAAGGCA	0.114
GCACTCAA	-0.128
ACCCCGGA	0.426
TGTACACA	0.0959
CCTGATTC	-0.00501
ATTAAGAC	0.123
CGCATAAA	0.0533
ATATCACG	0.137
AAGAATCA	0.207
CATTAACG	0.0861
GGTTGAAC	0.00313

Sequence	PBM E-score
ACCTGGGC	-0.339
ATCCGCTA	-0.057
CATTCAGA	-0.0722
ACACATGT	-0.0165
GCGTGTCC	-0.124
ATACCGTG	-0.209
CAATCCCG	0.0138
GAAGCACA	0.113
GCACGTGA	-0.228
AACTTAAC	0.216
ACTACTTG	-0.038
ATTTCTAC	0.0813
CCCCGGGG	0.198
AGGGTATG	-0.0994
ATGGACAA	-0.0528
AGGCAGGC	-0.208
AACTGTGG	-0.148
CGGAAAAA	0.273
ATTATCGC	0.238
CCAATTCC	0.0724
ATACTCAT	0.132
GAGAGGAA	0.0275
CGCGTCAG	-0.242
AGAAAGGA	-0.0461
ATTTAACA	0.213

Sequence	PBM E-score
ACCAGAAC	0.00879
AATCAAAT	0.216
TGAGATCA	-0.067
AAGACGAC	0.0308
AGCCAACC	0.119
CTTCTTCC	-0.0268
ACCGGGGA	-0.14
ACGTTTGG	-0.149
ACACTGCA	-0.15
CTAAAGCA	0.156
AAGGCATC	-0.118
GTGTAAAC	0.0373
ATCAGGTG	-0.16
ATGTATCG	0.0776
CTAGAGTC	-0.107
CGAGTGCG	0.0653
AGAGACTC	-0.00502
GTATCCTA	-0.0361
GACATAAA	0.195
GTCCTGTA	0.135
AGGACATA	-0.0903
CACAGACG	-0.12
CACCTCGG	0.128
TACATGAA	0.279
GGAACTCC	0.356

Sequence	PBM E-score
ACTGGACT	-0.107
AGTAGCTC	-0.123
ATATGCCG	-0.0897
GTAAATAA	0.243
TAGTTTCA	0.194
GACAGTCA	-0.121
ACGGTACG	0.0279
TACTTGCA	0.118
GCCCGTCC	-0.202
ACTTCTAA	0.208
GTGGCATA	-0.212
AGGTTCTG	-0.218
AGTCGAAA	0.115
CCTACATA	-0.0743
GGGTCTGA	-0.172
AGCGATTG	-0.0825
ACTGAGAG	-0.145
GAGAAGAA	0.183
TGCCAGAA	-0.112
